# Measurements reported in the supplement of paper PMC6531468.
# This is one part of the list. Read counts after selection give these values, which scatter widely. Each score is taken over the longer molecules that contain the sequence shown.
# Tested on: IMP3 RRM1-2
# Assay: 6-mer SELEX enrichment z-score vs GST control; IMP3 is the RNA-binding protein IGF2BP3; higher = more enriched by binding
# Conditions: construct: RRM1-2 (1-163); SELEX round: R2
# Experimental: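 SELEX-seq with GST-tagged IMP3 RRM1-2 (Met1-Asn163) and an N40 RNA pool, round 2. 6-mer enrichment z-score normalised to GST SELEX. RNA written as DNA (T = U).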
# Chain of IMP3 RRM1-2 (chain, as listed by the source): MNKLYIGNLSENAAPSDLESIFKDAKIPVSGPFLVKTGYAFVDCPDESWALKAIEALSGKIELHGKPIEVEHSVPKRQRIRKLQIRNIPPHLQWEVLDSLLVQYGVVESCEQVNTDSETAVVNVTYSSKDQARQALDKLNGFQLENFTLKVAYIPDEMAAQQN
row,Sequence,6-mer SELEX enrichment z-score
1,CCTTCA,0.931
2,ATAGCG,0.001
3,CGTTTG,0.102
4,CATAGG,1.04
5,AGTAAA,-0.856
6,AATTAC,-0.335
7,CCTGGC,-0.04
8,CTTGCA,0.28
9,AGAATT,-0.537
10,CCGGCT,0.21
11,CGGAGA,-0.941
12,ACTAAC,0.091
13,CAACAA,1.77
14,TAAGAA,-1.16
15,TTTAAA,-0.477
16,TGCGGG,-0.016
17,GCGGGA,-0.323
18,GGAGCG,-0.264
19,CCCCAC,-0.531
20,TCTAGA,-0.11

row,Sequence,6-mer SELEX enrichment z-score
1,GAGATA,-0.757
2,TTCGGC,0.39
3,TATTAA,-0.202
4,ATCACC,1.27
5,TCGGAC,0.121
6,TGCGCC,-0.239
7,AGACCC,-1.41
8,CAGGGA,0.087
9,GCTGGT,0.301
10,AGGCCA,0.135
11,AACCGT,-0.988
12,CTATTT,0.297
13,GATGAA,-1.42
14,TTTTTA,0.361
15,GACGGG,-0.535
16,AGAAAG,-1.46
17,CACAGG,1.82
18,AGGGAA,-0.765
19,GCAGTG,0.168
20,CGTCTT,0.52

# Biological target: IMP3 full-length (UniProt O00425)
# Assay: as above
# Conditions: construct: FL IMP3 (1-579); SELEX round: R4
# Experimental: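 SELEX-seq with GST-tagged full-length IMP3 and an N40 RNA pool, round 4. Each 6-mer is scored as an enrichment z-score of sequence tags containing it, normalised to the matching GST SELEX round. RNA written as DNA (T = U).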
# Chain of UniProt O00425 (O00425 whole entry): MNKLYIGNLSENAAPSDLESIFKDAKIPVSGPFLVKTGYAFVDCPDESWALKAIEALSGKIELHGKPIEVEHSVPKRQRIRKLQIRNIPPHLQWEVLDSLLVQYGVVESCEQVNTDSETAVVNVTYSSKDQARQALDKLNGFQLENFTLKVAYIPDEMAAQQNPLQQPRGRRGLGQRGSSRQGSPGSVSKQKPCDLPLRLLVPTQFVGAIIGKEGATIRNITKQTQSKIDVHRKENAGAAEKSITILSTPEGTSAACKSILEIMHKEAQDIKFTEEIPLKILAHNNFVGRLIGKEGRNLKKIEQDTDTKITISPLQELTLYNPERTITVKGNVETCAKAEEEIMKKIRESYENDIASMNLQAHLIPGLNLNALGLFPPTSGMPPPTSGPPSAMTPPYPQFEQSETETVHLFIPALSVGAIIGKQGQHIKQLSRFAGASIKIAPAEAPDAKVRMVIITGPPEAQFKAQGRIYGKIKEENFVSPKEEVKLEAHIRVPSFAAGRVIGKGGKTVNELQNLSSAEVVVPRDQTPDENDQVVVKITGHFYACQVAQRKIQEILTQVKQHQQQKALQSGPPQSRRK
row,Sequence,6-mer SELEX enrichment z-score
1,CCTTCA,0.6
2,ATAGCG,-0.213
3,CGTTTG,-0.287
4,CATAGG,0.951
5,AGTAAA,-0.571
6,AATTAC,-0.293
7,CCTGGC,-0.052
8,CTTGCA,0.082
9,AGAATT,-0.207
10,CCGGCT,0.473
11,CGGAGA,-0.185
12,ACTAAC,-0.509
13,CAACAA,1.14
14,TAAGAA,-0.773
15,TTTAAA,-0.411
16,TGCGGG,0.32
17,GCGGGA,0.477
18,GGAGCG,-0.686
19,CCCCAC,-0.593
20,TCTAGA,-0.296

row,Sequence,6-mer SELEX enrichment z-score
1,GAGATA,-0.274
2,TTCGGC,1.48
3,TATTAA,-0.031
4,ATCACC,0.82
5,TCGGAC,0.379
6,TGCGCC,-0.018
7,AGACCC,-1.73
8,CAGGGA,0.409
9,GCTGGT,0.093
10,AGGCCA,0.816
11,AACCGT,-0.777
12,CTATTT,0.27
13,GATGAA,-0.598
14,TTTTTA,0.212
15,GACGGG,0.32
16,AGAAAG,-0.741
17,CACAGG,2.12
18,AGGGAA,0.013
19,GCAGTG,0.378
20,CGTCTT,0.019

# Tested on: IMP3 KH1-2
# Assay: as above
# Conditions: construct: KH1-2 (164-376); SELEX round: R4
# Experimental: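 SELEX-seq with GST-tagged IMP3 KH1-2 (Pro164-Phe376) and an N40 RNA pool, round 4 (stringent 300/600 mM KCl washes). 6-mer z-score of sequence-tag enrichment normalised to the corresponding GST SELEX round; RNA k-mers written as DNA (T for U).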
# Chain of IMP3 KH1-2 (chain, as listed by the source): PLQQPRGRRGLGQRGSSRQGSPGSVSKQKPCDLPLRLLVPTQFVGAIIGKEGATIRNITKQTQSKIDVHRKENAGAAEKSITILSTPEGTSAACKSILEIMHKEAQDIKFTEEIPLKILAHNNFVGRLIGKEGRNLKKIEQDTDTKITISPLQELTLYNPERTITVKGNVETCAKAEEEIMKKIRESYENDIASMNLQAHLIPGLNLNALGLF
row,Sequence,6-mer SELEX enrichment z-score
1,CCTTCA,0.661
2,ATAGCG,-0.513
3,CGTTTG,-0.445
4,CATAGG,0.428
5,AGTAAA,0.057
6,AATTAC,1.02
7,CCTGGC,-0.429
8,CTTGCA,0.032
9,AGAATT,0.775
10,CCGGCT,-0.006
11,CGGAGA,-0.084
12,ACTAAC,0.868
13,CAACAA,0.681
14,TAAGAA,0.426
15,TTTAAA,0.832
16,TGCGGG,0.301
17,GCGGGA,0.333
18,GGAGCG,-1.91
19,CCCCAC,0.01
20,TCTAGA,-0.189

row,Sequence,6-mer SELEX enrichment z-score
1,GAGATA,0.296
2,TTCGGC,0.779
3,TATTAA,1.22
4,ATCACC,0.412
5,TCGGAC,-0.265
6,TGCGCC,-0.336
7,AGACCC,-1.38
8,CAGGGA,0.778
9,GCTGGT,-0.064
10,AGGCCA,0.77
11,AACCGT,-0.664
12,CTATTT,1.08
13,GATGAA,0.971
14,TTTTTA,0.932
15,GACGGG,0.259
16,AGAAAG,-0.047
17,CACAGG,0.788
18,AGGGAA,0.916
19,GCAGTG,0.218
20,CGTCTT,-0.295

# Tested on: IMP3 KH3-4
# Assay: as above
# Conditions: construct: KH3-4 (377-579); SELEX round: R4
# Experimental: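 SELEX-seq with GST-tagged IMP3 KH3-4 (Pro377-Lys579) and an N40 RNA pool, round 4. 6-mer z-score of sequence-tag enrichment normalised to the corresponding GST SELEX round; RNA k-mers written as DNA (T for U).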
# Chain of IMP3 KH3-4 (chain, as listed by the source): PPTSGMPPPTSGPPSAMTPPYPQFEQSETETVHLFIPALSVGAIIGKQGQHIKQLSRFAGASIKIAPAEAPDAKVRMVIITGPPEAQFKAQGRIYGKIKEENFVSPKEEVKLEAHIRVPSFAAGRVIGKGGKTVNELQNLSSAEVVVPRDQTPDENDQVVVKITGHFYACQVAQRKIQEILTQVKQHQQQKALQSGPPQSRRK
row,Sequence,6-mer SELEX enrichment z-score
1,CCTTCA,0.077
2,ATAGCG,-0.16
3,CGTTTG,-0.352
4,CATAGG,0.535
5,AGTAAA,0.801
6,AATTAC,1.45
7,CCTGGC,-0.712
8,CTTGCA,-0.155
9,AGAATT,1.68
10,CCGGCT,0.088
11,CGGAGA,0.082
12,ACTAAC,0.69
13,CAACAA,-0.058
14,TAAGAA,1.65
15,TTTAAA,1.94
16,TGCGGG,0.345
17,GCGGGA,0.257
18,GGAGCG,-1.79
19,CCCCAC,-1.5
20,TCTAGA,0.003

row,Sequence,6-mer SELEX enrichment z-score
1,GAGATA,0.8
2,TTCGGC,0.958
3,TATTAA,2.42
4,ATCACC,-0.485
5,TCGGAC,-0.066
6,TGCGCC,-0.636
7,AGACCC,-2.19
8,CAGGGA,0.651
9,GCTGGT,-0.019
10,AGGCCA,1.2
11,AACCGT,-1.15
12,CTATTT,1.33
13,GATGAA,1.91
14,TTTTTA,1.74
15,GACGGG,0.074
16,AGAAAG,0.7
17,CACAGG,0.442
18,AGGGAA,1.2
19,GCAGTG,0.164
20,CGTCTT,-0.214
